The target in assay [1] is Flag-FBW7β (F-box and WD repeat domain-containing protein 7, isoform β) (UniProt Q969H0). The assay can be described thus: co-IP; HEK293 cells transfected with tagged constructs; lysates immunoprecipitated with HA or Flag antibody and immunoblotted; in S7 Fig cells were treated with MG132 for 4 hours before lysis.
Assay [2] concerns the target Flag-FBW7γ (F-box and WD repeat domain-containing protein 7, isoform γ) (UniProt Q969H0). Described as above.
Assay [3] addresses Flag-FBW7α (F-box and WD repeat domain-containing protein 7, isoform α) (UniProt Q969H0). Described as above.
Assay [4] concerns the target HA-FBW7α (S7 Fig) (UniProt Q969H0). The description is as above.
In assay [5] the target is T1, endogenous MEKK3 of E14.5 mouse cortex (mouse (endogenous in E14.5 cortex)) (UniProt Q61084).
T1 sequence: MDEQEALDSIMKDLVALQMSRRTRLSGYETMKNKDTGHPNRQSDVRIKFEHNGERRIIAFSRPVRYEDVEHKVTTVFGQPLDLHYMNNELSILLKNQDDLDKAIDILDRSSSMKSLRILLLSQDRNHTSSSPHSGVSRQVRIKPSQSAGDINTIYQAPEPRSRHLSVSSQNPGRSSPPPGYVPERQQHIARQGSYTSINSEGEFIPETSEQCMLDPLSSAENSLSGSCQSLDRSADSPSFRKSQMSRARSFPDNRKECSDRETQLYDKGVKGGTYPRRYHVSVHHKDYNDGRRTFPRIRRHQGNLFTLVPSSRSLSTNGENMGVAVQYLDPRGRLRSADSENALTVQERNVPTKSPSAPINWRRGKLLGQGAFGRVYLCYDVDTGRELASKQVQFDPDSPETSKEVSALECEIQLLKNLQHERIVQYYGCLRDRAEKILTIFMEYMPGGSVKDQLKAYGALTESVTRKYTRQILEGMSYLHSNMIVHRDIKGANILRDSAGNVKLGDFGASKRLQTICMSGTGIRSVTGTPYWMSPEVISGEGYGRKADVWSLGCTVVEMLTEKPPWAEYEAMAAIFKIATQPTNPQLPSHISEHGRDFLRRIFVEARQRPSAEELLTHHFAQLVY
The assay can be described thus: co-IP; E14.5 mouse cortical lysate immunoprecipitated with anti-MEKK3 antibody, probed for MEKK3 and WDR62.

The chains behind the UniProt entries cited, without tags or fusion partners. Where a name states a change or a piece, a line headed by the entry shows the natural chain unless it says otherwise. A line that says so, or that is headed by a name, gives the form on record, which may keep a tag or linker.
UniProt Q969H0: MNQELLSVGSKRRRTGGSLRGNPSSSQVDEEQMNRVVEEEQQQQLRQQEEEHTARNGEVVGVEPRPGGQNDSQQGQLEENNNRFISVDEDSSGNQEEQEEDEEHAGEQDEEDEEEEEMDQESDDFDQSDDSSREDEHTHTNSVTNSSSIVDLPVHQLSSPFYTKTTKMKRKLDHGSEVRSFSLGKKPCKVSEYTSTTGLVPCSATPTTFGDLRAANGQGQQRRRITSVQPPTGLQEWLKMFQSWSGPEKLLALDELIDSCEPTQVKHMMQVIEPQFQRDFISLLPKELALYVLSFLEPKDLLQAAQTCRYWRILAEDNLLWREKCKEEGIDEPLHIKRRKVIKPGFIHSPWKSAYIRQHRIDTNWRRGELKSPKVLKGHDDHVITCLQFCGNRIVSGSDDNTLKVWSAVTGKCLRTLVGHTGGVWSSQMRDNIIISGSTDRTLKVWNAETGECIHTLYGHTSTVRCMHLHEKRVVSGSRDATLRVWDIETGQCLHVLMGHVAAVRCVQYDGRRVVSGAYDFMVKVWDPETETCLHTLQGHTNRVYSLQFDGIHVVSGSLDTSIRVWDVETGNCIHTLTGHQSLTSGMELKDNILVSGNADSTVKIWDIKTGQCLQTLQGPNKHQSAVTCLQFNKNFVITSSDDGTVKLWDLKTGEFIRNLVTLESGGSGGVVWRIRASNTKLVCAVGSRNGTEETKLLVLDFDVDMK
Flag-FBW7β (F-box and WD repeat domain-containing protein 7, isoform β) (Q969H0, form named): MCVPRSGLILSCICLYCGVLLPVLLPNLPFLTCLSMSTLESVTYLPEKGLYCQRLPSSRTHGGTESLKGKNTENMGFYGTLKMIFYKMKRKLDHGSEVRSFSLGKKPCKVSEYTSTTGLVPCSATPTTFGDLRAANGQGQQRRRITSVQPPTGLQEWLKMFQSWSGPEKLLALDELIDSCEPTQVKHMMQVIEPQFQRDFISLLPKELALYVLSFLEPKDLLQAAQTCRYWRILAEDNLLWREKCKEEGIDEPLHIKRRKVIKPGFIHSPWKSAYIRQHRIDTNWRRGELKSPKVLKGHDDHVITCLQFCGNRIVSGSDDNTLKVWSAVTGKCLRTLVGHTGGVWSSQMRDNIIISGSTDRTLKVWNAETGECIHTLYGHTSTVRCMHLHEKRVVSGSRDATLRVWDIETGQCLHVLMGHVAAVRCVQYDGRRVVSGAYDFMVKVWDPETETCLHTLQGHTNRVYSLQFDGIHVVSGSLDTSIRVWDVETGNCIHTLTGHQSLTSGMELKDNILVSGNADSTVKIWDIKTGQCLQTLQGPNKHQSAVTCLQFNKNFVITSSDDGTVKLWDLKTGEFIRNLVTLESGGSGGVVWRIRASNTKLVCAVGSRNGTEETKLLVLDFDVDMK
Flag-FBW7γ (F-box and WD repeat domain-containing protein 7, isoform γ) (Q969H0, form named): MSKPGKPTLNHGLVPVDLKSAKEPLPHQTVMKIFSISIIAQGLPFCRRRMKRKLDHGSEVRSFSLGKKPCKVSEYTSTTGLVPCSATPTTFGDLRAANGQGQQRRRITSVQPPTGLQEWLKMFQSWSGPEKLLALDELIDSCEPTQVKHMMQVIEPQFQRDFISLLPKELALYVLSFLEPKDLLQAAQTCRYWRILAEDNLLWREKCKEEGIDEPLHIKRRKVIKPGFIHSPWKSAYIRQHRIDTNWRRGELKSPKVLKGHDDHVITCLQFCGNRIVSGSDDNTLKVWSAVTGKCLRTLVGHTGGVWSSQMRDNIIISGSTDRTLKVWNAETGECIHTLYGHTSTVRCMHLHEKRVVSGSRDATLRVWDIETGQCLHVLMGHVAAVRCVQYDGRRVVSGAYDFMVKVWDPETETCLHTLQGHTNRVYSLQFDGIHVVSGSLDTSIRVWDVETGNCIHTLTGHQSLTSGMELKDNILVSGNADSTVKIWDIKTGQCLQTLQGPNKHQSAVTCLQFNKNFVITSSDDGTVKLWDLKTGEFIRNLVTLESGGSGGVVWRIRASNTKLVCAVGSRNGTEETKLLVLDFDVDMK
UniProt Q3U3T8: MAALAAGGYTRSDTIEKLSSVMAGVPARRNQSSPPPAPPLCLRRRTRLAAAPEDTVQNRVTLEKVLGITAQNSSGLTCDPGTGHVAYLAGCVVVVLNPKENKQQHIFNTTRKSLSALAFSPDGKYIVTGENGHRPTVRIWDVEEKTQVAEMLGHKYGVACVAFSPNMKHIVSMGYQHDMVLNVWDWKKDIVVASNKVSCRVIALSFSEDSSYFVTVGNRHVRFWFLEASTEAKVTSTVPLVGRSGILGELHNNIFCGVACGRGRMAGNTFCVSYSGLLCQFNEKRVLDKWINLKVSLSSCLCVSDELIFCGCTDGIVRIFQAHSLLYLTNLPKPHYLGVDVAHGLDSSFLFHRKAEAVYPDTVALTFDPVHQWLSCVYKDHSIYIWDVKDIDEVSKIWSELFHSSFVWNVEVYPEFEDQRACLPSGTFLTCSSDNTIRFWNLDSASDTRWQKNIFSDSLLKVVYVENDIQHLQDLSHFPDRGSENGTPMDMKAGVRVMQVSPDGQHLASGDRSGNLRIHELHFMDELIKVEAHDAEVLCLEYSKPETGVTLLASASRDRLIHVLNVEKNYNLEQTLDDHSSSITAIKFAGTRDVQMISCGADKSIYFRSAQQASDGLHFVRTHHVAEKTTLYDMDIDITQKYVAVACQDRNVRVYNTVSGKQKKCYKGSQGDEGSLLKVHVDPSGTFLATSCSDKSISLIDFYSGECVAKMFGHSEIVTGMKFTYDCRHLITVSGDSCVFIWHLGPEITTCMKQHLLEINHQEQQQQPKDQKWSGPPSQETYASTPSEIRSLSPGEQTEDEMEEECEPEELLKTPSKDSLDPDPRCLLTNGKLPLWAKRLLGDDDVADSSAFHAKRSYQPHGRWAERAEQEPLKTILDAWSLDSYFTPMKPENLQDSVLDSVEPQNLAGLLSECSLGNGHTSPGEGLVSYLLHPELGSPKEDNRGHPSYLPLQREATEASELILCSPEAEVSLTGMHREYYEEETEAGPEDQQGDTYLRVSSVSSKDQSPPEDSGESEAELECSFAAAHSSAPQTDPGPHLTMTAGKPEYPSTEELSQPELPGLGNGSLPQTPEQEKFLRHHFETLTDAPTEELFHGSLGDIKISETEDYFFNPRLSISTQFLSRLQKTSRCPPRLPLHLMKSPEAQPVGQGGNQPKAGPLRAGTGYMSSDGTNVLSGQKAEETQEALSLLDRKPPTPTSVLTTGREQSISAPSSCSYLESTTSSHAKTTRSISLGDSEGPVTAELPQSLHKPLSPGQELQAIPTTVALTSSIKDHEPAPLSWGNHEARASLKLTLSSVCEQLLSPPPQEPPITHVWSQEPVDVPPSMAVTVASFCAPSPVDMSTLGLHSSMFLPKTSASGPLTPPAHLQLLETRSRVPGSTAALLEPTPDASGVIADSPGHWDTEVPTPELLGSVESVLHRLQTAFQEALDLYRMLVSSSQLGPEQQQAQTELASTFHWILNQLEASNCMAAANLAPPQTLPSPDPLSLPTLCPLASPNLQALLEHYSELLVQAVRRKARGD

For assay [6], the target named is WDR62 T1053A (as used in Fig 6B) (human) (UniProt O43379). The assay can be described thus: co-IP; HEK293 cells transfected with tagged constructs; lysates immunoprecipitated with HA or Flag antibody and immunoblotted; in S7 Fig cells were treated with MG132 for 4 hours before lysis.
Assay [7] addresses HA-WDR62 (WD repeat domain 62), wild type (human) (UniProt O43379). The description is as above.
Assay [8] addresses T2, GST-fused WDR62 C2 (aa1018-1523) (human) (UniProt O43379).
T2 sequence: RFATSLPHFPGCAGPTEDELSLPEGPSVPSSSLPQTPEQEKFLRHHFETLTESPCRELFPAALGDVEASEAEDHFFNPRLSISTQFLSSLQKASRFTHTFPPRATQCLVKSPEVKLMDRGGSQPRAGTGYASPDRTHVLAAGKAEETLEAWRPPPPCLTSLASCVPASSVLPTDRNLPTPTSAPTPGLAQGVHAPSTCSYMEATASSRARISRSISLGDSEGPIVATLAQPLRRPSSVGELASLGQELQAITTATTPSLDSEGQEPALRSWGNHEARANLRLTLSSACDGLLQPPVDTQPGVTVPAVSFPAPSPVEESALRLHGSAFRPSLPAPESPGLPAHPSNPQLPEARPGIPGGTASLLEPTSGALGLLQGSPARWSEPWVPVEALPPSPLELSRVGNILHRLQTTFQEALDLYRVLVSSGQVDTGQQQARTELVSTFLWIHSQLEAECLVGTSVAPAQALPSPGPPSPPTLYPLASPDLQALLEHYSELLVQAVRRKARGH
Briefly: pull-down; in vitro-transcribed and translated MEKK3 with purified GST-fused WDR62 fragments or GST; only the target purified.

In assay [9] the target is T3, GST-fused WDR62 C1 (aa1314-1523) (human) (UniProt O43379).
T3 sequence: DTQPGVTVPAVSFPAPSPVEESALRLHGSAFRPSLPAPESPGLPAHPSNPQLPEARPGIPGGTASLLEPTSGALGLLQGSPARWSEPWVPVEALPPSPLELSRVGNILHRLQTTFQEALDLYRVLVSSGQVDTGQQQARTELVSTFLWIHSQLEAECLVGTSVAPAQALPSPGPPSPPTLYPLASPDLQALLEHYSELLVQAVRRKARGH
Described as above.

The values below come from article PMC6347294.

These are yes or no findings as the source states them, for the method shown. Binding seen in cells or lysates may run through a third protein. Some entries that bind do so weakly or less than the wild type. For some of these results: Sequences can lack the tags named with a protein.

As to “HA-WDR62 (WD repeat domain 62), wild type (from UniProt O43379-4 1-1523)”, the results for the binding entry in assay [1], in [2] and in assay [3] were “no binding”, “binds” and “binds”, respectively.
“Flag-WDR62, wild type (S7 Fig) (from UniProt O43379-4 1-1523)”: the binding result in [4] is recorded as “binds”.
Regarding “endogenous WDR62 of E14.5 mouse cortex (from UniProt Q3U3T8 1-1523)”, the binding entry in [5] is “binds”.
For “Flag-FBW7α (F-box and WD repeat domain-containing protein 7, isoform α) (from UniProt Q969H0-1 1-707)”, the binding entry in assay [6] is “binds weakly”.
Take “Flag-WDR62-T1053A (S7 Fig) (from UniProt O43379-4 1-1523)”: the binding result in [4] is given as “binds weakly”.

B1: Flag-MEKK3 (mitogen-activated protein kinase kinase kinase 3) (enzyme, UniProt Q99759 1-626)
chain: MDEQEALNSIMNDLVALQMNRRHRMPGYETMKNKDTGHSNRQSDVRIKFEHNGERRIIAFSRPVKYEDVEHKVTTVFGQPLDLHYMNNELSILLKNQDDLDKAIDILDRSSSMKSLRILLLSQDRNHNSSSPHSGVSRQVRIKASQSAGDINTIYQPPEPRSRHLSVSSQNPGRSSPPPGYVPERQQHIARQGSYTSINSEGEFIPETSEQCMLDPLSSAENSLSGSCQSLDRSADSPSFRKSRMSRAQSFPDNRQEYSDRETQLYDKGVKGGTYPRRYHVSVHHKDYSDGRRTFPRIRRHQGNLFTLVPSSRSLSTNGENMGLAVQYLDPRGRLRSADSENALSVQERNVPTKSPSAPINWRRGKLLGQGAFGRVYLCYDVDTGRELASKQVQFDPDSPETSKEVSALECEIQLLKNLQHERIVQYYGCLRDRAEKTLTIFMEYMPGGSVKDQLKAYGALTESVTRKYTRQILEGMSYLHSNMIVHRDIKGANILRDSAGNVKLGDFGASKRLQTICMSGTGMRSVTGTPYWMSPEVISGEGYGRKADVWSLGCTVVEMLTEKPPWAEYEAMAAIFKIATQPTNPQLPSHISEHGRDFLRRIFVEARQRPSAEELLTHHFAQLMY
For the molecule B1, the binding result in [7] was “binds”.

B2: in vitro-transcribed and translated MEKK3 (enzyme, UniProt Q99759 1-626)
chain: MDEQEALNSIMNDLVALQMNRRHRMPGYETMKNKDTGHSNRQSDVRIKFEHNGERRIIAFSRPVKYEDVEHKVTTVFGQPLDLHYMNNELSILLKNQDDLDKAIDILDRSSSMKSLRILLLSQDRNHNSSSPHSGVSRQVRIKASQSAGDINTIYQPPEPRSRHLSVSSQNPGRSSPPPGYVPERQQHIARQGSYTSINSEGEFIPETSEQCMLDPLSSAENSLSGSCQSLDRSADSPSFRKSRMSRAQSFPDNRQEYSDRETQLYDKGVKGGTYPRRYHVSVHHKDYSDGRRTFPRIRRHQGNLFTLVPSSRSLSTNGENMGLAVQYLDPRGRLRSADSENALSVQERNVPTKSPSAPINWRRGKLLGQGAFGRVYLCYDVDTGRELASKQVQFDPDSPETSKEVSALECEIQLLKNLQHERIVQYYGCLRDRAEKTLTIFMEYMPGGSVKDQLKAYGALTESVTRKYTRQILEGMSYLHSNMIVHRDIKGANILRDSAGNVKLGDFGASKRLQTICMSGTGMRSVTGTPYWMSPEVISGEGYGRKADVWSLGCTVVEMLTEKPPWAEYEAMAAIFKIATQPTNPQLPSHISEHGRDFLRRIFVEARQRPSAEELLTHHFAQLMY
Take B2: the binding entry in [8] is reported as “binds”; in assay [9], “no binding”.
